MIC of invasive clinical C. tropicalis isolates, CLSI broth microdilution (fluconazole 0.12-256 mg/L, up to 1,024 for the azole-resistant cluster and its neighbour group; other ranges not stated); higher = less susceptible. Call: susceptible or wild type [S] / resistant or non-wild type [R] by CLSI breakpoints or cut-offs; intermediate and dose-dependent carry no call. '<=' and '>=' at the end values are inferred; the source marks only some of them. Isolates are numbered anew.
Each test system was assayed with Nc1[nH]c(=O)ncc1F [flucytosine] (assay: CLSI broth microdilution.).

Test System	MIC
Candida tropicalis isolate 326 (ERG11 copies: 4, Erg11p: Y132F, S154F (heterozygous))	≤ 0.06 mg/L [S]
Candida tropicalis isolate 75 (ERG11 copies: 2, Erg11p: no key change)	≤ 0.06 mg/L [S]
Candida tropicalis isolate 113 (ERG11 copies: 2, Erg11p: no key change)	0.12 mg/L [S]
Candida tropicalis isolate 324 (ERG11 copies: 2, Erg11p: no key change)	≤ 0.06 mg/L [S]
Candida tropicalis isolate 125 (ERG11 copies: 7, Erg11p: Y132F, S154F (heterozygous))	≤ 0.06 mg/L [S]
Candida tropicalis isolate 29 (ERG11 copies: 2, Erg11p: no key change)	≤ 0.06 mg/L [S]
Candida tropicalis isolate 250 (ERG11 copies: 2, Erg11p: no key change)	0.12 mg/L [S]
Candida tropicalis isolate 446 (ERG11 copies: 2, Erg11p: no key change)	≤ 0.06 mg/L [S]
Candida tropicalis isolate 132 (ERG11 copies: 10, Erg11p: Y132F, S154F (heterozygous))	≤ 0.06 mg/L [S]
Candida tropicalis isolate 329 (ERG11 copies: 2, Erg11p: no key change)	≤ 0.06 mg/L [S]
Candida tropicalis isolate 241 (ERG11 copies: 2, Erg11p: no key change)	≤ 0.06 mg/L [S]
Candida tropicalis isolate 166 (ERG11 copies: 2, Erg11p: no key change)	≤ 0.06 mg/L [S]
Candida tropicalis isolate 360 (ERG11 copies: 2, Erg11p: no key change)	≤ 0.06 mg/L [S]
Candida tropicalis isolate 194 (ERG11 copies: 8, Erg11p: Y132F, S154F (heterozygous))	≤ 0.06 mg/L [S]
Candida tropicalis isolate 391 (ERG11 copies: 2, Erg11p: Y132F, S154F (homozygous))	≤ 0.06 mg/L [S]
Candida tropicalis isolate 170 (ERG11 copies: 2, Erg11p: Y132F, S154F (homozygous))	0.12 mg/L [S]
Candida tropicalis isolate 313 (ERG11 copies: 2, Erg11p: no key change)	≤ 0.06 mg/L [S]
Candida tropicalis isolate 417 (ERG11 copies: 8, Erg11p: Y132F, S154F, P397S (heterozygous))	≤ 0.06 mg/L [S]

Test System	MIC
Candida tropicalis isolate 49 (ERG11 copies: 2, Erg11p: no key change)	≤ 0.06 mg/L [S]
Candida tropicalis isolate 58 (ERG11 copies: 2, Erg11p: no key change)	≤ 0.06 mg/L [S]
Candida tropicalis isolate 264 (ERG11 copies: 2, Erg11p: no key change)	≤ 0.06 mg/L [S]
Candida tropicalis isolate 101 (ERG11 copies: 2, Erg11p: no key change)	0.12 mg/L [S]
Candida tropicalis isolate 300 (ERG11 copies: 6, Erg11p: Y132F, S154F (heterozygous))	≤ 0.06 mg/L [S]
Candida tropicalis isolate 79 (ERG11 copies: 2, Erg11p: no key change)	≤ 0.06 mg/L [S]
Candida tropicalis isolate 162 (ERG11 copies: 2, Erg11p: no key change)	0.12 mg/L [S]
Candida tropicalis isolate 11 (ERG11 copies: 2, Erg11p: no key change)	≤ 0.06 mg/L [S]
Candida tropicalis isolate 238 (ERG11 copies: 2, Erg11p: Y257H (homozygous))	≤ 0.06 mg/L [S]
Candida tropicalis isolate 227 (ERG11 copies: 2, Erg11p: no key change)	≤ 0.06 mg/L [S]
Candida tropicalis isolate 311 (ERG11 copies: 2, Erg11p: Y132F, S154F (homozygous))	≤ 0.06 mg/L [S]
Candida tropicalis isolate 444 (ERG11 copies: 2, Erg11p: no key change)	0.12 mg/L [S]
Candida tropicalis isolate 60 (ERG11 copies: 2, Erg11p: no key change)	0.12 mg/L [S]
Candida tropicalis isolate 421 (ERG11 copies: 2, Erg11p: no key change)	≤ 0.06 mg/L [S]
Candida tropicalis isolate 290 (ERG11 copies: 2, Erg11p: no key change)	≤ 0.06 mg/L [S]
Candida tropicalis isolate 365 (ERG11 copies: 2, Erg11p: no key change)	≤ 0.06 mg/L [S]
Candida tropicalis isolate 362 (ERG11 copies: 2, Erg11p: no key change)	≤ 0.06 mg/L [S]
Candida tropicalis isolate 291 (ERG11 copies: 2, Erg11p: no key change)	≤ 0.06 mg/L [S]

What follows are test systems tested with CCCCCOc1ccc(-c2ccc(-c3ccc(C(=O)N[C@H]4C[C@@H](O)[C@@H](O)NC(=O)[C@@H]5[C@@H](O)[C@@H](C)CN5C(=O)[C@H]([C@@H](C)O)NC(=O)[C@H]([C@H](O)[C@@H](O)c5ccc(O)cc5)NC(=O)[C@@H]5C[C@@H](O)CN5C(=O)[C@H]([C@@H](C)O)NC4=O)cc3)cc2)cc1 [anidulafungin] (assay: CLSI broth microdilution.).

Test System	MIC
Candida tropicalis isolate 326 (ERG11 copies: 4, Erg11p: Y132F, S154F (heterozygous))	0.06 mg/L [S]
Candida tropicalis isolate 75 (ERG11 copies: 2, Erg11p: no key change)	0.12 mg/L [S]
Candida tropicalis isolate 113 (ERG11 copies: 2, Erg11p: no key change)	0.12 mg/L [S]
Candida tropicalis isolate 324 (ERG11 copies: 2, Erg11p: no key change)	≤ 0.015 mg/L [S]
Candida tropicalis isolate 125 (ERG11 copies: 7, Erg11p: Y132F, S154F (heterozygous))	0.12 mg/L [S]
Candida tropicalis isolate 29 (ERG11 copies: 2, Erg11p: no key change)	0.03 mg/L [S]
Candida tropicalis isolate 250 (ERG11 copies: 2, Erg11p: no key change)	0.5 µg/mL
Candida tropicalis isolate 446 (ERG11 copies: 2, Erg11p: no key change)	≤ 0.015 mg/L [S]
Candida tropicalis isolate 132 (ERG11 copies: 10, Erg11p: Y132F, S154F (heterozygous))	0.12 mg/L [S]
Candida tropicalis isolate 329 (ERG11 copies: 2, Erg11p: no key change)	0.12 mg/L [S]
Candida tropicalis isolate 241 (ERG11 copies: 2, Erg11p: no key change)	≤ 0.015 mg/L [S]
Candida tropicalis isolate 166 (ERG11 copies: 2, Erg11p: no key change)	≤ 0.015 mg/L [S]
Candida tropicalis isolate 360 (ERG11 copies: 2, Erg11p: no key change)	0.03 mg/L [S]
Candida tropicalis isolate 194 (ERG11 copies: 8, Erg11p: Y132F, S154F (heterozygous))	0.12 mg/L [S]
Candida tropicalis isolate 391 (ERG11 copies: 2, Erg11p: Y132F, S154F (homozygous))	0.03 mg/L [S]
Candida tropicalis isolate 170 (ERG11 copies: 2, Erg11p: Y132F, S154F (homozygous))	0.25 mg/L [S]
Candida tropicalis isolate 313 (ERG11 copies: 2, Erg11p: no key change)	0.03 mg/L [S]
Candida tropicalis isolate 417 (ERG11 copies: 8, Erg11p: Y132F, S154F, P397S (heterozygous))	0.12 mg/L [S]

Test System	MIC
Candida tropicalis isolate 49 (ERG11 copies: 2, Erg11p: no key change)	0.06 mg/L [S]
Candida tropicalis isolate 58 (ERG11 copies: 2, Erg11p: no key change)	0.12 mg/L [S]
Candida tropicalis isolate 264 (ERG11 copies: 2, Erg11p: no key change)	0.03 mg/L [S]
Candida tropicalis isolate 101 (ERG11 copies: 2, Erg11p: no key change)	≤ 0.015 mg/L [S]
Candida tropicalis isolate 300 (ERG11 copies: 6, Erg11p: Y132F, S154F (heterozygous))	0.12 mg/L [S]
Candida tropicalis isolate 79 (ERG11 copies: 2, Erg11p: no key change)	1 mg/L [R]
Candida tropicalis isolate 162 (ERG11 copies: 2, Erg11p: no key change)	0.12 mg/L [S]
Candida tropicalis isolate 11 (ERG11 copies: 2, Erg11p: no key change)	0.12 mg/L [S]
Candida tropicalis isolate 238 (ERG11 copies: 2, Erg11p: Y257H (homozygous))	≤ 0.015 mg/L [S]
Candida tropicalis isolate 227 (ERG11 copies: 2, Erg11p: no key change)	0.12 mg/L [S]
Candida tropicalis isolate 311 (ERG11 copies: 2, Erg11p: Y132F, S154F (homozygous))	0.25 mg/L [S]
Candida tropicalis isolate 444 (ERG11 copies: 2, Erg11p: no key change)	0.12 mg/L [S]
Candida tropicalis isolate 60 (ERG11 copies: 2, Erg11p: no key change)	0.06 mg/L [S]
Candida tropicalis isolate 421 (ERG11 copies: 2, Erg11p: no key change)	≤ 0.015 mg/L [S]
Candida tropicalis isolate 290 (ERG11 copies: 2, Erg11p: no key change)	0.03 mg/L [S]
Candida tropicalis isolate 365 (ERG11 copies: 2, Erg11p: no key change)	0.12 mg/L [S]
Candida tropicalis isolate 362 (ERG11 copies: 2, Erg11p: no key change)	0.12 mg/L [S]
Candida tropicalis isolate 291 (ERG11 copies: 2, Erg11p: no key change)	≤ 0.015 mg/L [S]

Each test system was assayed with CC[C@@H]([C@H](C)O)n1ncn(-c2ccc(N3CCN(c4ccc(OC[C@@H]5CO[C@@](Cn6cncn6)(c6ccc(F)cc6F)C5)cc4)CC3)cc2)c1=O [posaconazole] (assay: CLSI broth microdilution.).

Test System	MIC
Candida tropicalis isolate 326 (ERG11 copies: 4, Erg11p: Y132F, S154F (heterozygous))	0.5 mg/L [R]
Candida tropicalis isolate 75 (ERG11 copies: 2, Erg11p: no key change)	0.25 mg/L [S]
Candida tropicalis isolate 113 (ERG11 copies: 2, Erg11p: no key change)	0.015 mg/L [S]
Candida tropicalis isolate 324 (ERG11 copies: 2, Erg11p: no key change)	0.06 mg/L [S]
Candida tropicalis isolate 125 (ERG11 copies: 7, Erg11p: Y132F, S154F (heterozygous))	1 mg/L [R]
Candida tropicalis isolate 29 (ERG11 copies: 2, Erg11p: no key change)	0.5 mg/L [R]
Candida tropicalis isolate 250 (ERG11 copies: 2, Erg11p: no key change)	0.25 mg/L [S]
Candida tropicalis isolate 446 (ERG11 copies: 2, Erg11p: no key change)	0.06 mg/L [S]
Candida tropicalis isolate 132 (ERG11 copies: 10, Erg11p: Y132F, S154F (heterozygous))	1 mg/L [R]
